We go through 71 compounds from PubChem BioAssay AID488969 (Vanderbilt High Throughput Screening Facility, 2010).

In all, about 110,000 compounds were measured (“z-score”: median about -0.1, highest 2% from about 2 on). This is one part of the list. Calls of active or inactive are those of the source.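 The calls were made as follows: active = z-score in the third read window above 3 or below -3; inactive = the rest.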

This assay addresses Metabotropic glutamate receptor 8 (Rattus norvegicus) (UniProt P70579). The experiment in a line: rat mGluR8 modulators via GIRK flux, primary screen, cell-based, thallium flux, HTS (AID 488969). To be noted: HEK293 rat mGluR8, GIRK (G protein-gated inwardly rectifying potassium channel) thallium flux, FluoZin2; at 10 µM; stronger effect = higher value.
UniProt P70579, sequence (P70579 whole entry, looked up): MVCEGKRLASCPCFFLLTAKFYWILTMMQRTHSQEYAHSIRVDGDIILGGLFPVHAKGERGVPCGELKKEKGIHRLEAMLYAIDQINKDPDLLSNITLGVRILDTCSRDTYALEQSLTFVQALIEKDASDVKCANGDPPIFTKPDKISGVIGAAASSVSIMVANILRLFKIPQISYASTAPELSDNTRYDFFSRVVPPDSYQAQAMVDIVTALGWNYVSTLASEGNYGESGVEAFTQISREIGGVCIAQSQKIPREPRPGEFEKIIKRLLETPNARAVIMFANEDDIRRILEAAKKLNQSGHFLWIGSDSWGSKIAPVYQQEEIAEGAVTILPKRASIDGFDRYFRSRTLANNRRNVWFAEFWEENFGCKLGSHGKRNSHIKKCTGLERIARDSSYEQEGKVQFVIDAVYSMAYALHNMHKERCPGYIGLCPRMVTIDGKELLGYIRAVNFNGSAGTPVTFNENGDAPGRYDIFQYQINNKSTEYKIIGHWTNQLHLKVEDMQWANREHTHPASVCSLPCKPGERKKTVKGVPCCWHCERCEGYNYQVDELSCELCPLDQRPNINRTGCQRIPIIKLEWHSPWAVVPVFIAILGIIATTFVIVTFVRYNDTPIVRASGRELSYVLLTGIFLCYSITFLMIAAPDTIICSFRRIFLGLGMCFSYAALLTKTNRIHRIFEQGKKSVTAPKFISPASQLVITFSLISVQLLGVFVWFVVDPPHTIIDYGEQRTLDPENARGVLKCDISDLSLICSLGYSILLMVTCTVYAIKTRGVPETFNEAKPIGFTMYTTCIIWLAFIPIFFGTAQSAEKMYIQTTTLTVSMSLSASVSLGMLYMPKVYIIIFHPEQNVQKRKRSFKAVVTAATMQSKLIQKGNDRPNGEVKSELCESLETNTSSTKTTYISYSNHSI
In the case of `O=C(Nc1ccc(Cl)cc1)O/N=C(\c1ccccc1)c1ccccn1`, the z-score was -0.375.

`CCCCCCC(=O)c1c(O)n(-c2ccccc2OC)c(=O)[nH]c1=O` gave a z-score of 0.949.

As for `Cn1ccnc1P(=S)(c1nccn1C)c1nccn1C`, the z-score was 0.528.

`FC(F)(F)c1ccc2c(c1)N(CCCN1CCN(CCCl)CC1)c1ccccc1S2` showed a z-score of -0.54.

Take `Cc1c(Cl)cccc1NC(=S)N1CC2CC(C1)c1cccc(=O)n1C2` (stereo unspecified): the z-score was -0.341.

The compound `COc1ccc(/C=C/C(=O)c2c(O)n(CCC3=CCCCC3)c(=O)[nH]c2=O)cc1` gave a z-score of -0.436.

With `Cc1cccc(-n2c(O)c(C=NCCCN3CCOCC3)c(=O)[nH]c2=O)c1C`, the z-score was found to be 0.107.

In turn, `COc1cc(/C=N/NC(=O)Cn2c([N+](=O)[O-])cnc2C)ccc1OC(=O)N(C)C` displayed a z-score of -0.315.

Consider `O=C1CN=C(c2ccccc2)c2cc(Br)ccc2N1Cc1cc(=O)n2ccccc2n1`, for which the z-score was -0.21.

`C=CCn1c(O)c(C(C)=NCc2cccnc2)c(=O)[nH]c1=O` yielded a z-score of 0.323.

For `CC(CO)(CO)N=Cc1c(O)n(-c2cccc3ccccc23)c(=O)[nH]c1=O`, the z-score is -0.583.

`COc1ccccc1C1=NCc2nnc(C)n2-c2ccc(Cl)cc21`: the z-score is 0.478.

`CC1(C)CC(=O)C(C=NCCN2CCN(C(=O)Cc3ccccc3)CC2)=C(O)C1` gave a z-score of -0.0124.

Consider `O=c1[nH]c(=S)n(-c2ccc(Br)cc2)c(O)c1C=Nc1ccc(N2CCOCC2)cc1`, for which the z-score was -0.456.

`CCCCn1c(O)c(/C=C/C=Nc2ccccc2)c(=O)[nH]c1=O` showed a z-score of -2.18.

As to `C=CCN1C(=O)NC(=O)/C(=C/c2cc3c4c(c2)CCCN4CCC3)C1=O`, the z-score was -0.594.

The compound `CNC(=O)Oc1ccc2c(c1)C(=O)c1ccccc1CO2` gave a z-score of -0.329.

`O=[N+]([O-])c1ccc(N2CCCC2)c(F)c1Br` yielded a z-score of -1.46.

The compound `Cc1ccc2c(c1)C1CN(C)CCC1N2C(=O)Nc1cccc(Cl)c1` (stereo unspecified) showed a z-score of 1.44.

In the case of `COc1ccc(CC2C(=O)NC(=O)NC2=O)c(OC)c1`, the z-score was active: 13.6.

`CN(C)CCCN=Cc1c(O)n(CCc2ccccc2)c(=O)[nH]c1=O` registered a z-score of 0.135.

`O=C(Nc1ccc(Cl)cc1C(=O)c1ccccc1)c1ccco1` had a z-score of -0.412.

On to `CCN1C(=O)c2ccccc2Sc2ccc(C(=O)N3CCC4(CC3)OCCO4)cc21`, for which the z-score is -0.937.

Regarding `COc1ccc(CC2C(=O)N(c3ccccc3)C(=O)N(c3ccccc3)C2=O)c(OC)c1`, the z-score was -0.0175.

Regarding `CCOC(=O)c1c(C)n(CCOC)c2ccc(O)cc12`, the z-score worked out at 0.821.

`CCCCC(=O)N/N=C/c1c(O)n(Cc2ccco2)c(=O)[nH]c1=O`: the z-score was -0.0422.

As to `CC12CN3C(O)C(C)(C1)CC(C)(C2)C3O` (stereo unspecified), the z-score was -0.0787.

`CN(C)CCc1nn[nH]n1`: the z-score was determined as 0.148.

In the case of `CC(=O)C1(c2ccccc2)CCNCC1`, the z-score came to 0.3.

The compound `CC1CCC(NCCc2ccc3c(c2)OCO3)CC1` (stereo unspecified) came in with a z-score of 0.00241.

Turning to `O=C(c1ccccc1)c1cn(CC(=O)N2CCCc3ccccc32)c2ccccc12`, the z-score was -1.09.

Take `O=C(Cn1cc(C(=O)c2ccccc2F)c2ccccc21)NCc1ccco1`: the z-score is -0.941.

With `COC(=O)c1ccc(-n2c(C)nc3ccccc3c2=O)cc1`, the z-score was -0.262.

`CC(C(=O)Nc1ccc(Cl)cc1Cl)N1CC=C(c2ccccc2)CC1` (stereo unspecified): the z-score was 0.37.

Consider `Cc1ccc(Cn2cc(C=O)c(-c3ccc(C)cc3)n2)cc1`, for which the z-score was -0.11.

`Cc1ccc(Cc2c(C)nc3nc(SCC(=O)N4CCC5(CC4)OCCO5)nn3c2C)cc1` came in with a z-score of -0.0184.

`CCN(CC)C1=NC(=[N+](CC)CC)c2ccccc21` displayed a z-score of 0.0677.

`CN(C)C(=O)Oc1ccc(OCc2cccc[n+]2C)cc1` returned a z-score of -0.0662.

In turn, `CN(C)c1nc(-c2ccccc2)[n+](C)s1` gave a z-score of 0.0804.

In turn, `CCN(CC)c1ccc(N=Cc2c(O)n(CCc3ccc(OC)c(OC)c3)c(=O)[nH]c2=O)cc1` showed a z-score of -0.148.

For `Nc1ccc(N2CCN(Cc3ccccc3Cl)CC2)c(Cl)c1`, the z-score is 0.0509.

`Cc1nn(Cc2ccccc2)c(C)c1C(=O)OCC(=O)NC1CCS(=O)(=O)C1` (stereo unspecified) displayed a z-score of -0.151.

Compound `CCOP(=O)(OCC)C(NC(=O)C(Cl)Cl)C(Cl)(Cl)Cl` (stereo unspecified) showed a z-score of -0.137.

Regarding `CC(=C1C(=O)c2ccccc2C1=O)N1CCN(CCN=Cc2c(O)n(C)c(=O)n(C)c2=O)CC1`, the z-score turned out to be 0.436.

In turn, `CCOc1ccc(CC2C(=O)NC(=O)N(c3ccc(CC)cc3)C2=O)cc1` (stereo unspecified) came in with a z-score of -0.531.

In turn, `O=C(CNC(=O)OCc1ccccc1)Nc1ccc(Br)cc1C(=O)c1ccccc1Cl` showed a z-score of -0.196.

Regarding `CC(C(=O)c1cn(C)c2ccccc12)c1ccccc1` (stereo unspecified), the z-score was -0.202.

Take `CN1CCCC1C(O)(c1ccccc1)c1ccccc1` (stereo unspecified): the z-score is -0.0177.

`CCCCN1C(=O)/C(=C/c2ccc(N3CCCCCC3)cc2)C(=O)NC1=S` returned a z-score of -0.0524.

In turn, `CCC(=O)N1c2ccc(S(=O)(=O)CCC(=O)N3CCC4(CC3)OCCO4)cc2CC1C` (stereo unspecified) returned a z-score of 0.00521.

`COc1ccc(Br)cc1CN1CCN(C(=O)Cc2ccccc2)CC1` returned a z-score of 0.412.

As for `N#Cc1ccccc1Cn1cc(C(=O)c2cccs2)c2ccccc21`, the z-score came out at 0.24.

In turn, `CCCCCCOc1ccc(CN2CCN(CC)CC2)cc1` registered a z-score of 0.69.

For the compound `O=C(COc1ccccc1)Nc1ccc(Cl)cc1C(=O)c1ccccc1`, the z-score is -0.359.

The compound `Cc1nc2cc(-c3cccc(F)c3)nn2c(C)c1CCC(=O)N1CCC2(CC1)OCCO2` came in with a z-score of 0.608.

With `CCN(CC)C(=O)c1ccc(N2C(=O)C3CC=C(Cl)CC3C2=O)cc1` (stereo unspecified), the z-score is -0.188.

As for `CCCCn1c(C)c(C(=O)OCC)c2c(CN3CCOCC3)c(O)ccc21`, the z-score was active: 4.12.

`O=c1cccc2n1CC1CC2CN(S(=O)(=O)c2ccccc2)C1` (stereo unspecified) showed a z-score of 0.151.

With `Nc1c(C(=O)OCC2CCCO2)c2nc3ccccc3nc2n1Cc1cccs1` (stereo unspecified), the z-score was -0.55.

`COc1ccc(CCn2c(O)c(C=NCc3cccnc3)c(=O)[nH]c2=O)cc1OC`: the z-score was determined as 0.158.

`CN1CCN(S(=O)(=O)c2cnc(Cl)c(Br)c2)CC1` displayed a z-score of -1.22.

The compound `Cc1noc(C)c1C(=O)N1CCC2(CC1)OCCO2` had a z-score of -0.294.

The compound `CCC(COC(=O)NC)NC(=O)Oc1ccccc1` (stereo unspecified) returned a z-score of -0.4.

As to `O=P(c1ccccc1)(c1nc2ccccc2s1)N1CCOCC1` (stereo unspecified), the z-score worked out at 0.207.

`Nc1ccnn1C1CCNCC1` displayed a z-score of 0.0563.

For `COc1cc(/C=C/C(=O)c2c(O)n(CCc3ccccc3)c(=O)[nH]c2=O)ccc1O`, the z-score worked out at 0.237.

On to `CC(NCc1ccccc1Cl)C(O)c1ccccc1` (stereo unspecified), for which the z-score was -0.196.

In the case of `O=C(Cn1c2c(c(-c3ccccc3Cl)cc1=O)CCC2)N1CCC2(CC1)OCCO2`, the z-score is -0.0282.

For `CC(=O)OC1N=C(c2ccc(Cl)cc2)c2cc(Br)ccc2NC1=O` (stereo unspecified), the z-score was -0.187.

For the compound `CSCc1nnc2n1-c1ccc(Cl)cc1C(c1ccccc1)=NC2`, the z-score is -0.724.

Regarding `O=C(Nc1ccccc1)Oc1ccccc1`, the z-score was 0.0771.
